# Assay results from US20120114667A1.
# Where a chain is given by its changes, count along the chain named.
# B1: 8A6.1A3 (antibody, IgG4, V domains shown)
# VH: not shown
# VL: DIVMTQSPDSLAVSLGERATINCKSSQSVFFSSSNENYLTWYQQKPGQPPKLLIYWASTRESGVPDRFSGSGSGTDFTLTISSLQAEDVAVYYCQQYYNIPWTFGQGTKVEIK
# B2: 9E2.3A8 (antibody, IgG4, V domains shown)
# VH: [about 100 residues not printed]GRGYNSGWYDYWGQGTLVTVSS
# VL: B1 VL with F30L, F31H, S32N, S34H, T59S, T80S, E87D, Y98F, N99S, I100N
# B3: 3G11.1A6 (antibody, IgG2, V domains shown)
# VH: RVQLQESGPGLVKPTQTLSLTCTVSGSSIISGGYFWTWIRQHPGKGLEWIGYIYYSGSTYYSPSLKSRVTISVDTSKNQFSLKLSSVTAADTAVYYCTRAVPAAKGYYSYYGMDVWGQGTTVTVSS
# VL: [about 100 residues not printed]FGPGTKVDIK
# B4: 2C5.2B12 (antibody, IgG2, V domains shown)
# VH: B3 VH with S27G
# VL: [about 100 residues not printed]YCMQVLQTPFTFGPGTKVDIK
# Target: avb3 and avb5 integrins on A375M cells
# Experiment: cell-based or functional assay
"Osteopontin Adhesion (% inhibition) at 5 ug/ml, A375M cells","Vitronectin Adhesion (% inhibition) at 5 ug/ml, A375M cells",Binder
7%,6%,B1
7%,-4%,B2
3%,12%,B3
0%,16%,B4
